Experimental findings from the supplement of paper PMC10126150 are described below.

Values marked as one replicate rest on one cluster of the flow cell; about a third of the high ones do not repeat.
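Also: ATP exposure 15 min at 22 °C before imaging.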

For the series, the system named is ATP. Nature of the series: switch fluorescence ratio, 500 uM ATP over buffer (Cy3 cluster intensity, sum of 5 cycles each) (fold (ratio)); higher = stronger signal-on switching upon ATP binding; sequences stand for … in TCGTCGGCAGCGTCAGATGTGTATAAGAGACAGTTTTTTTTTTTTTTTTTTTTTTTTT…TC. To be noted: aptamer strand: ATP DNA aptamer (quencher-CACCTGGGGGAGTATTGCGGAGGAAGG + anchor), 100 nM annealed; ATP concentration: 500 uM; one replicate. The method, boiled down: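 Imaging in selection buffer was followed by imaging after 15 min with 500 uM ATP at 22 °C, for Cy3-labelled switching-strand clusters annealed to 100 nM quencher-labelled ATP aptamer on a modified Illumina MiSeq flow-cell. Five of these buffer/ATP cycles ran, separated by NaOH stripping and re-annealing. The fluorescence ratio per cluster is summed target-cycle over summed buffer-cycle Cy3 intensity, averaged per switch-domain sequence; clusters outside 100-1000 RFU were removed.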
With TTCAGGCTAA, the switch fluorescence ratio turned out to be 0.974.
Consider TTACAGAAGA, for which the switch fluorescence ratio came out at 1.03.
The result for ACGTTATCGT reads 1.07.
The figure for CGATGCAGCC is 1.8; for TATTGTTAGT it is 0.982.
With TAGTTACTAT, the switch fluorescence ratio stood at 0.983.
Take TACTTTGGTC: the switch fluorescence ratio is 0.981.
The result for TCTGATCTGC reads 1.01; that for TAGAGCAAAC, 2.61; that for GATAGATAGC, 1.
The figure for TTGACTGAGG is 0.99; for CCACAAAGAG it is 1.03; for GACCCGAAGC it is 1.97.
Take GACTGTAAAC: the switch fluorescence ratio was found to be 1.2.
The result for TTGGTCTCGT reads 1.08.
The result for AAGCTTCAAC reads 1.07; that for TGAGGCCTGA, 1.
In the case of CATGTCTAGC, the switch fluorescence ratio turned out to be 0.998.
With TTCGGCCTTG, the switch fluorescence ratio was determined as 1.02.
As to CGCACAGGT, the switch fluorescence ratio stood at 2.68.
Take CCATTTCAGC: the switch fluorescence ratio came to 1.02.
The result for GAAGCGAGGG reads 1.05; that for TGAAGTTGGT, 1.03.
Take AGCAGGTCTG: the switch fluorescence ratio is 0.969.
Turning to CAGCGAAGGC, the switch fluorescence ratio was determined as 1.
Turning to TTAGGCCCTA, the switch fluorescence ratio was 1.
For TAGATTTCAA, the switch fluorescence ratio worked out at 1.07.
The figure for TCTCTGGGTG is 1.06.
The figure for CAAATTGTGT is 0.966.
For ACGGGGTATG, the switch fluorescence ratio came out at 0.996.
For CGAGCTTGCC, the switch fluorescence ratio came out at 0.925.
Consider CCCGGAAAAT, for which the switch fluorescence ratio amounted to 0.993.
Consider AAGACACAAC, for which the switch fluorescence ratio worked out at 1.09.
Consider TCGTGAATCA, for which the switch fluorescence ratio was determined as 1.02.
The figure for CCTAATCACA is 1.02; for GCCTTGCAGC it is 0.945.
For the sequence CTCAACCGCT, the switch fluorescence ratio was 1.38.
The figure for TTGACCGGTT is 1.06; for TGACTTCACA it is 1.32.
Consider CCAGCTTAGG, for which the switch fluorescence ratio was 1.03.
The result for CATGACAGCT reads 1.01; that for TAAGGCTACG, 1.01.
In the case of GCGCATCTTA, the switch fluorescence ratio was 0.999.
The figure for TACGCGCGTT is 1.04; for ACTGGTGAGT it is 0.989.
As to GGGTGATTAT, the switch fluorescence ratio is 1.
The result for CACTAGGGA reads 1.01; that for CGAAACACCC, 1.19.
With CTACGACAGG, the switch fluorescence ratio worked out at 1.5.
Regarding ACTACACTTG, the switch fluorescence ratio was determined as 1.27.
On to TAGATGCAA, for which the switch fluorescence ratio stood at 0.985.
Regarding CTCTGGTTGG, the switch fluorescence ratio was determined as 1.03.
The result for TTCTGCGGT reads 1.1.
The figure for GGTGCAATAA is 3.71.
TTCCCATCTT: the switch fluorescence ratio was found to be 0.996.
For the sequence TATGAGATCC, the switch fluorescence ratio was determined as 1.03.
As to CTGTTTTATA, the switch fluorescence ratio came out at 0.943.
With AGATCGATT, the switch fluorescence ratio is 1.02.
The result for GAGCCCGTCG reads 1.1; that for TTGCGAAGGC, 0.995; that for TCTAACTGGG, 0.989.
The result for AACGAAGAGT reads 0.95; that for TCTCTATAAT, 1.01.
The figure for AAACTCCAGC is 1.1; for CGAAAGATCA it is 1.01; for AATGTACGAA it is 1.12.
On to ATGAGGTCAC, for which the switch fluorescence ratio is 0.998.
